T1: UNK ZnF1-3 (human, UniProt Q9C0B0 31-174)
T1 sequence: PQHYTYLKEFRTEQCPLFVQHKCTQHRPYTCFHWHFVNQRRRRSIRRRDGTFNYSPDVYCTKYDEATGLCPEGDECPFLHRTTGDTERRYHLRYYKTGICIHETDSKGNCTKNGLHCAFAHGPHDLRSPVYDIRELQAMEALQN

B1: chr3:149686290:149686291:-_ENSG00000070087_ENST00000452853|perfect_dup|motif|central (ssRNA)
RNA: GGGAGUUCUACAGUCCGACGAUCGCCAAGAGUCAAACCGUUGGUAAAGAAACCUUCCCGGUCUUUUCCUACAAUCAUAUCGGUUUCGGUUGGCGUAAUGCUCUGAAAGACGCCCCCGGCCGUGGCUGCCCAGACGUAUUUGGCCAACAGAGGAUUGAGCAUCA
B2: chr1:169356373:169356374:+_ENSG00000117475_ENST00000367808|hu_hu|FALSE|FALSE (ssRNA)
RNA: GGGAGUUCUACAGUCCGACGAUCGGCAAUCAGUUCUCCCCGGCAGUGAUUGCAGCAAUUGAAAGUUAUAUUUUCAUAUCUAGUAUAGGGAUGAAAUCGUCCAAUAUUUUUCUUUGUAGCAAGUAAGGUGGUUGGUGAAGACUCCAACAGAGGAUUGAGCAUCA
B3: 34927613_34929497_3120_CDS_ENSG00000159140_ENST00000436227|human|control|control (ssRNA)
RNA: GGGAGUUCUACAGUCCGACGAUCCAUUAGCUUUGGCUAUUUCAAGUAAUUGAGCCUUAUCCAAAUCUGUCAGACGUUUGGGUGAUCUGCCUCGUUCAGAAGACCUGGAUCUUUUACGACGGAUGGGAGAUCUGCUAAACCUUCCAACAGAGGAUUGAGCAUCA
B4: chr4:174298412:174298413:+_ENSG00000164105_ENST00000296504|hu_hu|motif|central (ssRNA)
RNA: GGGAGUUCUACAGUCCGACGAUCAUUCUUCACUGAGUAGAUGAAAUAUGUUAAGGUGUCUUUUUCAUUCACUGGAAUAGACCGGAAGUGGCAACCAACUAUCUCAACAAGUUGUGCUUUAUUAAGUCCUGGUCUGGUUGGUAGCAACAGAGGAUUGAGCAUCA
B5: chr7:151048522:151048523:+_ENSG00000013374_ENST00000566856|hu_mus|hu_hu_hu_mus_True|8_88 (ssRNA)
RNA: GGGAGUUCUACAGUCCGACGAUCCUGUUUCUUAUUUAUUACGAUCUUGAUAUAAUUUUCUUGAAAUCCGAAAGUUUCAGCUAUUUGACACCUCAGGUCUCUACCAGUGACAUGCAAGCGGGUCUCCAACAAGUUUUUCUUAUCCAACAGAGGAUUGAGCAUCA
B6: chr3:176740097:176740098:-_ENSG00000177565_ENST00000430069|hu_mus|hu_hu_hu_mus_True|28_28 (ssRNA)
RNA: GGGAGUUCUACAGUCCGACGAUCUGUUUUGUAUACCACAAAAGGAGGCACUUUCAGUAUCUGCAAAAGGUGUUUAGUCCUAAAACAUACUCACCUAGAGGAUAACUAAAACAGAAUAUCUGUUACACUCUAAGACCUACUCCACAACAGAGGAUUGAGCAUCA
B7: 39664085_39664205_5794_3pUTR_ENSG00000078142_ENST00000262039|human|control|control (ssRNA)
RNA: GGGAGUUCUACAGUCCGACGAUCUGGUUUAUUGUUUUAAAUCGCAAUGUUAUACUUAUGUGCAAAAAUAUACUUAAGGUAUAUUAUGGUUGUAGGUUAACAAUUGCAUUGGCAAGAUUCAUUUUUCCUGUAUGUUUUUACUGACAACAGAGGAUUGAGCAUCA
B8: chr15:69561275:69561276:+_ENSG00000138604_ENST00000261858|hu_hu|FALSE|FALSE (ssRNA)
RNA: GGGAGUUCUACAGUCCGACGAUCUUCUUUUAAGUCAUACAGCCCAAUUAAAGAAUACAUAAAGCCAUUUAAAACAAAAGAGCUAGGUGUGGUUGGAUAUUCUUCAUACCAGUCAUGUUUAUUCAUAAACACAGCUUUAACUCCCAACAGAGGAUUGAGCAUCA
B9: chr21:30434530:30434531:-_ENSG00000156261_ENST00000286788|hu_mus|motif|central (ssRNA)
RNA: GGGAGUUCUACAGUCCGACGAUCAUCAUCUACUGCCCUUUCUAUGUCAUCCAUCAGAUUGUCUGUAGAACCUCGAAGAACGGUAGUAGAAAUGGCACCAUCUUCUUUUUCAUGCUUAAAAACAACCACUUGUGUAUCUCCAACCAACAGAGGAUUGAGCAUCA
B10: chr2:160604868:160604869:+_ENSG00000136536_ENST00000409591|perfect_dup|motif|central (ssRNA)
RNA: GGGAGUUCUACAGUCCGACGAUCUGCCUCUGGUUCAGAGCUAUGAUUUUGGCUGAGCGACGACAACCCCCAUCUUCGCCGGAGAAAUCUAAAUCCCUGAGAUGCUUCAGCUGCCCUGCCCUCACUGACGUCAGAGGACGAGGACAACAGAGGAUUGAGCAUCA
B11: chr12:16052864:16052865:+_ENSG00000023734_ENST00000419869|hu_hu|motif|central (ssRNA)
RNA: GGGAGUUCUACAGUCCGACGAUCCCAUAGUCUCAAUGUUCCAUCUUCUGAACCACUGGCAUAGAGUUCUCCAUCAGGACGGAAUCUCACACAGUGAAUAGGACCAAAGUGUCCCUUGUAGGAUUCUAAUUCUUCUCCACUAUUCAACAGAGGAUUGAGCAUCA
B12: chr7:138056749:138056750:+_ENSMUSG00000040268_ENSMUST00000120441|mus_hu|FALSE|FALSE (ssRNA)
RNA: GGGAGUUCUACAGUCCGACGAUCUGUGCAGUUUAUUCUCAUUACAGUGUUCAACCAGUUUGACAUAUAAAGAUAACACACUUUAACAGUAAAUGUUGGGAGGCACACAUAUAUUCCCAUUCUGAAAGAAGACAUGUUAUAUAUCAACAGAGGAUUGAGCAUCA
B13: chr2:31072873:31072874:+_ENSMUSG00000000194_ENSMUST00000056433|mus_mus|FALSE|FALSE (ssRNA)
RNA: GGGAGUUCUACAGUCCGACGAUCCACACGGUGAGUGCUGAGGAGGGGGGCAGGUCAGCAUGUGAGCUCAGGUGGGUGAUGGAAUGUGGGAACAAGGCUGGGGGGUAGGCUAGAAUCUUCCUUUGAGGACCAGCAGCUUGGCAGCAACAGAGGAUUGAGCAUCA
B14: chr14:103542484:103542485:-_ENSMUSG00000033004_ENSMUST00000161008|mus_mus|FALSE|FALSE (ssRNA)
RNA: GGGAGUUCUACAGUCCGACGAUCUUCGACAAGAUGUUGUUGAUGUGAUGGAAGACAUUGCUCUGAUGGAGGAACUGGUGAUCGGACUGCUUGAACUUGAGGCUCCAGCAUCUUAAGGCCAUUUGUUGCAAUGAACUGCCACUACAACAGAGGAUUGAGCAUCA
B15: chr11:34129765:34129766:+_ENSG00000135372_ENST00000257829|hu_mus|FALSE|FALSE (ssRNA)
RNA: GGGAGUUCUACAGUCCGACGAUCCCAUUCUCAAUGAGAAUUCGAAUUCGGUUAUCCACCUUCUUCCGAUUCAUGAUGAAAAGCUAUCACUGCGCCCUGCUCCGGCCGACACCAGGCAGCUGCACAACGGAAGCACGUGAAGACCAACAGAGGAUUGAGCAUCA
B16: chr8:104447970:104447971:+_ENSG00000164934_ENST00000297579|hu_hu|hu_hu_hu_mus_False|58_108 (ssRNA)
RNA: GGGAGUUCUACAGUCCGACGAUCAUAUACCUCCCUGCUUCGGCUCUUGUCCACAGGAAAGAUUCUAAUAGACUUAUCGAAACUAGCAGACACAAAUUCCUUCCCAGUGGGAGAGUAGUCCACAUCAAGUACUGCAGACACGUGCAACAGAGGAUUGAGCAUCA
B17: chr1:186326634:186326635:-_ENSG00000047410_ENST00000367478|hu_mus|FALSE|FALSE (ssRNA)
RNA: GGGAGUUCUACAGUCCGACGAUCAGCGAAUAGCAGACGCUGAUUCUGCUGCUGAAGCUCUUCGAUGUUCCUGUAAGAUACUAGGUGCUGCGAAAUCACUUCAGACGAACUACUGAUGUCAGCAGAGCUGACCUCCUCAUCCCGCAACAGAGGAUUGAGCAUCA
B18: chr4:83122263:83122264:-_ENSMUSG00000028484_ENSMUST00000107214|mus_mus|motif|central (ssRNA)
RNA: GGGAGUUCUACAGUCCGACGAUCAUUGGAUUGUUUAGUUGAUGCCUGUUGACUUGAAAAUUUCACUUUCGGAUUGUUAUCGGUCUCCCACAAUCCUUCAUUAAAACCUUUCCGUUUAUUUGGUUUGCCAUACUUUUCCUUAUUCAACAGAGGAUUGAGCAUCA
B19: chr6:53387275:53387276:-_ENSG00000001084_ENST00000229416|hu_mus|FALSE|FALSE (ssRNA)
RNA: GGGAGUUCUACAGUCCGACGAUCUGUCCUCUCCCCCUUCUCCUGCAGAGUCUCAAGAACAUCGCCUCCAUUCAGUAACAACUGGACUUUCCUAUUUUCAUGAUCGAAGGACACCAACAUGUACUCCACCUCGUCACCCCACUUCAACAGAGGAUUGAGCAUCA
B20: chr9:100852126:100852127:+_ENSMUSG00000037286_ENSMUST00000129269|mus_hu|FALSE|FALSE (ssRNA)
RNA: GGGAGUUCUACAGUCCGACGAUCACCAUGUUCAGACUCAGGUUCUUGAAUCUGGUCUCCCAUGGGCCGACUGUUCUCCCGCAGUACAGUGGAUGUGAGUUGUGGUGCUGGCAGGGGGCCAGGAGUCUGAAUCAUGGUGUCAGUCAACAGAGGAUUGAGCAUCA
B21: chr11:20202655:20202656:-_ENSMUSG00000020142_ENSMUST00000109594|mus_mus|motif|central (ssRNA)
RNA: GGGAGUUCUACAGUCCGACGAUCAUAGACAUAAUUUGUAGUUUAGUUCCCCUUUAUCCAAACUCAGGUUUGCUUGGAGCGGAAAGCACACACAUACACACACACACUUGAUACAUAAAGUAUAUGUAAAUACAGAGGAAAAGACAACAGAGGAUUGAGCAUCA
B22: chr6:41757443:41757444:+_ENSG00000214736_ENST00000398881|hu_mus|hu_hu_hu_mus_False|1_1 (ssRNA)
RNA: GGGAGUUCUACAGUCCGACGAUCGAACCGUGCAGAGGCAACAUCUCAGCCGACACUGGGGGAUGGGGGGGCAGUGGGGGGGGGUUCAGGCAAGGAGAGGGAGUCAACUUCAGCUGCCACUCAGGUAGGAUCUUGUGGGGCACACAACAGAGGAUUGAGCAUCA

This is one part of the list.

In the assay the target is T1, UNK ZnF1-3. Kind of assay: nsRBNS (natural sequence RNA bind-n-seq); RBNS binding buffer (assumed for nsRBNS): 25 mM Tris pH 7.5, 150 mM KCl, 3 mM MgCl2, 0.01% Triton X-100, 500 ug/ml BSA, 20 U/ml SUPERase-In, 4 C; UNK is unkempt and MSI1 is Musashi-1; names of the RNAs are library labels; protein concentration not given here; high values mean tight binding.
With B1, the binding signal stood at 0.88 enrichment R.
For B2, the binding signal was 1.55 enrichment R.
As to B3, the binding signal turned out to be 0.87 enrichment R.
Molecule B4 had a binding signal of 0.917 enrichment R.
Molecule B5 had a binding signal of 0.893 enrichment R.
In the case of B6, the binding signal turned out to be 0.836 enrichment R.
Take B7: the binding signal was 0.431 enrichment R.
Molecule B8 returned a binding signal of 0.923 enrichment R.
B9 returned a binding signal of 1.16 enrichment R.
Molecule B10 showed a binding signal of 0.586 enrichment R.
The result for B11 reads 0.579 enrichment R; that for B12, 0.693 enrichment R; that for B13, 1.78 enrichment R.
B14 returned a binding signal of 0.852 enrichment R.
Regarding B15, the binding signal is 1.24 enrichment R.
For the molecule B16, the binding signal is 0.956 enrichment R.
B17: the binding signal is 0.823 enrichment R.
With B18, the binding signal amounted to 0.284 enrichment R.
Molecule B19 showed a binding signal of 1.38 enrichment R.
B20 registered a binding signal of 0.42 enrichment R.
In turn, B21 gave a binding signal of 1.7 enrichment R.
For the molecule B22, the binding signal was 1.07 enrichment R.

Source of the values: paper PMC12136788.
